Experimental data as given in PubChem BioAssay AID686978 (National Center for Advancing Translational Sciences (NCATS), 2013).
The campaign covered roughly 420,000 compounds. About 64,000 (15%) were called active. Inconclusive results, whose numbers are uncertain, are shown with a selection of clear calls. Calls come from the whole dose curve; as a rule, active = well fitted inhibition curve with a large enough effect; inconclusive = small, poorly fitted or top-dose-only effect; inactive = flat fitted curve, though single readings scatter. Potencies of inconclusive entries are left out as doubtful fits.

Assay: qHTS for Inhibitors of human tyrosyl-DNA phosphodiesterase 1 (TDP1): qHTS in cells in absence of CPT; note: nearly all actives have a fitted effect of over 55% in size
Details: DT40 Tdp1-/- hTDP1 cells, no CPT, ATP luminescence, 48 h; activity change, negative = growth inhibition: at 46.2 µM (top of the series) unless noted
How it was run: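 Chicken DT40 Tdp1-/- cells stably complemented with human TDP1 were seeded at 400 cells/well with DMSO in place of 20 nM camptothecin. After compound pinning, cells grew at least 48 hr at 37 °C; viability read by CellTiter-Glo luminescence.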
% is set by controls: 0 for no effect and ±100 for the full control effect; potency is the fitted concentration of half-maximal effect; tags give direction and shape of the fitted curve.

| Structure (SMILES) | activity change, negative = growth inhibition | Potency |
| --- | --- | --- |
| O=C(OCn1nnc2ccccc2c1=O)c1cn(-c2ccccc2)nc1-c1cccnc1 | inconclusive: -30.2% [inhibitor] | – |
| Cc1cc(Cl)ccc1NC(=S)N1CCC(C(N)=O)(N2CCCCC2)CC1 | – | inconclusive [inhibitor, single point] |
| Nc1ccccc1C(=O)NCc1ccccc1 | – | inconclusive [inhibitor, single point] |
| COc1ccc(C(=O)N/N=C/c2ccc(OC)c(COc3ccc(F)cc3)c2)cc1 | – | inconclusive [inhibitor, single point] |
| Cc1ccccc1CSc1nc2c(sc3ccccc32)c(=O)n1CCCOC(C)C | – | inconclusive [inhibitor, partial curve] |
| O=c1c(N2CCN(c3cccc(C(F)(F)F)c3)CC2)csc2ccc(Cl)cc12 | – | inconclusive [inhibitor, single point] |
| Cc1ccc(S(=O)(=O)Cc2ccc(C(=O)NC3CCCCCC3)o2)cc1 | – | inconclusive [inhibitor, partial curve] |
| O=C(O)CN1C(=O)C(=O)N(Cc2ccccc2F)C1=O | inactive: -4.75% | – |
| Cc1ccccc1NC(=O)Cc1nc(COC(=O)Cc2cccc(C(F)(F)F)c2)cs1 | – | inconclusive [inhibitor, single point] |
| COc1ccc2[nH]c(=O)c(CN(C(=O)c3ccccn3)c3ccccc3)cc2c1 | – | inconclusive [inhibitor, single point] |
| CC1(C(=O)NCc2cccs2)Cc2c(-c3ccc4c(c3)OCO4)ccnc2O1 (stereo unspecified) | – | active: 2.31 µM |
| Cc1cccc(C)c1NC(=O)C(c1ccncc1)n1c(=O)c(-c2ccco2)nc2ccccc21 (stereo unspecified) | inconclusive: -31.9% [inhibitor] | – |
| COc1ccc(S(=O)(=O)N2CCCCCC2)cc1C(=O)NCc1cccs1 | inactive: 3.12% | – |
| Cc1nnsc1C(=O)N/N=C/c1ccc2ccccc2c1O | – | active: 0.82 µM |
| Nn1c(COc2ccccc2F)nnc1SCC(=O)NC1CCCC1 | inactive: -3.64% | – |
| CCC1CO/C(=C(\C(=C(Cl)Cl)N2CCOCC2)[N+](=O)[O-])N1 (stereo unspecified) | inactive: 8.25% | – |
| COC(=O)c1sc(S(=O)(=O)Nc2ccc(Br)cc2)c(C(=O)OC)c1C | inactive: -20.3% | – |
| Cc1nn(C)c2c1c(-c1ccccc1)cc(=O)n2C(C)C(=O)NCc1ccc(F)cc1 (stereo unspecified) | – | inconclusive [inhibitor, single point] |
| CC(=O)c1c(C)[nH]c(C(=O)OCC(=O)NCCC2=CCCCC2)c1C | – | inconclusive [inhibitor, partial curve, poor fit] |
| COc1ccc(OC)c(CCNC(=O)Cc2ccc(NC(=O)C3=C(C)OCCS3)cc2)c1 | – | inconclusive [inhibitor, partial curve] |
| COc1ccc(N2CCN(c3oc(-c4ccco4)nc3C#N)CC2)cc1 | – | inconclusive [inhibitor, partial curve, poor fit] |
| O=C(/C=C/c1ccc2ccccc2n1)N1CCN(c2ccccc2)CC1 | – | inconclusive [inhibitor, partial curve] |
| c1ccc(-c2csc(N3CCOCC3)n2)cc1 | inactive: -7.44% | – |
| COc1ccccc1CC(=O)Nc1cccc2ccccc12 | inactive: -24.7% | – |

| Structure (SMILES) | activity change, negative = growth inhibition | Potency |
| --- | --- | --- |
| COCCNC(=O)CSc1ccccc1C(=O)NCC1CCCCC1 | – | inconclusive [inhibitor, full curve] |
| CS(=O)(=O)c1ccccc1C(=O)Nc1cc2c(cc1C(=O)O)OCCCO2 | inactive: 2.82% | – |
| S=C(NCc1ccccc1Cl)NC1CCCC1 | – | inconclusive [inhibitor, single point] |
| COCCN(C(=O)COC(=O)Cc1coc2cc3c(cc12)CCC3)c1c(N)n(Cc2ccccc2)c(=O)[nH]c1=O | – | inconclusive [inhibitor, single point] |
| O=c1ccn(-c2cccc(C(F)(F)F)c2)nc1-c1ccn(-c2ccccc2)n1 | – | inconclusive [inhibitor, partial curve, poor fit] |
| c1ccc(-c2nnc(N3CCN(c4ccccn4)CC3)c3ccccc23)cc1 | – | inconclusive [inhibitor, single point] |
| Cc1ccc(-c2cc(C(F)(F)F)n3ncc(C(=O)N4CCCCC4c4cccnc4)c3n2)cc1 (stereo unspecified) | – | inconclusive [inhibitor, single point] |
| CCOc1ccc(N(CC(=O)Nc2ccccc2F)S(=O)(=O)c2c(C)[nH]c(=O)[nH]c2=O)cc1 | inactive: 19.9% | – |
| CC(C)NS(=O)(=O)c1ccc(OCC(=O)Nc2ccc3c(c2)OCCO3)cc1 | inactive: -0.099% | – |
| O=C(NNC(=O)c1cc(O)c(O)c(O)c1)NC1CCCCC1 | – | inconclusive [inhibitor, single point] |
| CCCn1c(N)c(Sc2ccccc2[N+](=O)[O-])c(=O)n(CCC)c1=O | – | inconclusive [inhibitor, single point] |
| Cc1[nH]c(=O)[nH]c(=O)c1S(=O)(=O)N1CCCC(C(=O)NCCc2ccc(Cl)cc2)C1 (stereo unspecified) | inactive: -1.01% | – |
| Cc1cc(OC(C)C(=O)N(Cc2ccco2)C2CCS(=O)(=O)C2)ccc1Cl (stereo unspecified) | – | inconclusive [inhibitor, single point] |
| CC1=C(C(=O)N(C)C)CC(CC(=O)NC2CCCC2)C(=O)N1Cc1ccccc1 (stereo unspecified) | inactive: 3.18% | – |
| Cn1c(=O)c2c(nc(CN3CCN(C(=O)c4ccco4)CC3)n2CCCc2ccccc2)n(C)c1=O | – | active: 20.6 µM |
| CCOC(=O)N1CCC2CC1c1cc(-c3cccc(OC)c3)ccc12 (stereo unspecified) | – | inconclusive [inhibitor, partial curve] |
| O=C1OCC2=C1C(c1ccc(F)cc1)c1cc3c(cc1N2)OCCO3 (stereo unspecified) | – | active: 0.184 µM |
| COC(C[C@@H](O)CC(=O)COCc1ccccc1)OC | inactive: 13.5% | – |
| CCCCn1c(N)c(N(CCC(C)C)C(=O)CC2CCCC2)c(=O)[nH]c1=O | inactive: -17.8% | – |
| C#CCNC(=O)C[C@@H]1C[C@@]2(C(=O)OC)CC(C)(C)CC=C2N(Cc2cccc3ccccc23)C1=O | – | active: 18.4 µM |
| CC(=O)c1ccc(N2CCN(S(=O)(=O)c3ccc4[nH]c5c(c4c3)CCCC5)CC2)cc1 | – | active: 25.9 µM |
| CC(C)C#Cc1cnc2c(c1)C(=O)N([C@@H](C)CO)C[C@@H](C)[C@H](CN(C)Cc1cccc(F)c1)O2 | – | inconclusive [inhibitor, single point] |
| CCOc1ccc(OCC)c(S(=O)(=O)NCCOC23CC4CC(CC(C4)C2)C3)c1 | – | active: 13 µM |
| CCc1ccccc1NS(=O)(=O)c1ccc2c(c1)OCC(C(=O)N1CCCC1)O2 (stereo unspecified) | – | inconclusive [inhibitor, single point] |

| Structure (SMILES) | activity change, negative = growth inhibition | Potency |
| --- | --- | --- |
| CC(C)(C)C1CCc2c(sc3nc(SCC(=O)O)nc(N)c23)C1 (stereo unspecified) | inactive: -5.21% | – |
| CC(=O)Nc1cccc(NC(=O)c2c(-c3ccccc3)c(-c3ccccc3)nn(C)c2=O)c1 | inactive: -28.9% | – |
| CCN(Cc1ccccc1)Cc1c(O)ccc2c(=O)c(-c3ccccc3Cl)c(C(F)(F)F)oc12 | – | inconclusive [inhibitor, single point] |
| C=CCc1cccc(/C=N/NC(=O)c2ccccc2OC)c1O | – | inconclusive [inhibitor, single point] |
| COc1ccccc1CN1CC(=O)N2CSC[C@H]2C1=O | inactive: -6.08% | – |
| CCc1ccc(Nc2nc(N)nc(CSc3nc4ccccc4s3)n2)cc1 | – | inconclusive [inhibitor, single point] |
| O=C(CC(Sc1n[nH]c(-c2ccccc2)n1)c1ccccc1)NCc1ccccc1 (stereo unspecified) | – | inconclusive [inhibitor, partial curve] |
| O=C(NCc1cccc(F)c1)c1cccc(NC(=O)c2nsc3ccccc23)c1 | – | active: 23.1 µM |
| OCc1nc2ccccc2n1CCOc1ccccc1 | – | inconclusive [inhibitor, single point] |
| N#Cc1ccc(-c2nc3c4ccccc4ccn3c2Cc2ccsc2)cc1 | – | active: 13 µM |
| Cc1ccc(S(=O)(=O)N(C)C)cc1NC(=O)C(C)OC(=O)C1CCCC1 (stereo unspecified) | inactive: -5.92% | – |
| Cc1noc(C)c1NC(=O)N(C)C[C@H]1OCCCC[C@@H](C)Oc2ccc(NS(=O)(=O)c3ccccc3)cc2C(=O)N([C@H](C)CO)C[C@@H]1C | – | inconclusive [inhibitor, partial curve, poor fit] |
| CCOc1ccc(-c2nnc(SCC(=O)NCc3ccc(C)cc3)nc2-c2ccc(OCC)cc2)cc1 | – | active: 13 µM |
| Cc1ccsc1C(=O)N1CCC1(C)C(=O)Nc1ccc2c(c1)OCCO2 (stereo unspecified) | – | inconclusive [inhibitor, single point] |
| CCC(CC)C(=O)Nc1cccc(-c2nc3ccccc3s2)c1 | – | inconclusive [inhibitor, single point] |
| N#CC1=C(N)N(c2ccccc2)C(c2cccc([N+](=O)[O-])c2)C1(C#N)C#N (stereo unspecified) | – | active: 16.4 µM |
| Fc1ccc(-c2cn3cc(Cc4ccc(Cl)cc4)sc3n2)cc1 | inactive: -23.3% | – |
| CC1(C)CC(=O)C=C(c2cccnc2)C1 | inactive: -12.3% | – |
| Cc1ccc(C)c(C(O)c2ncc(-c3cccc4ccccc34)[nH]2)c1 (stereo unspecified) | – | inconclusive [inhibitor, single point] |
| COc1ccc(/C=N/Nc2cc(C)nc(NS(=O)(=O)c3ccc(C)cc3)n2)cc1 | – | inconclusive [inhibitor, single point] |
| Cc1cc(C)[n+]2n1C(=O)C(c1ccccc1)=C2[O-] | – | inactive |
| Cc1cccc(-n2ncc3c(NC4CCCC4)ncnc32)c1 | inactive: -52.1% | – |
| CCC(C)N(C(=O)CSc1nc(-c2ccccc2)cs1)C1CCS(=O)(=O)C1 (stereo unspecified) | – | inconclusive [inhibitor, single point] |
